Data as given in PubChem BioAssay AID504832 (National Center for Advancing Translational Sciences (NCATS), 2011).
The whole screen tested about 310,000 compounds, of which about 18,000 (5.8%) were called active. Inconclusive results, whose numbers are uncertain, are shown with a selection of clear calls. Calls come from the whole dose curve; as a rule, active = well fitted inhibition curve with a large enough effect; inconclusive = small, poorly fitted or top-dose-only effect, or another doubt; inactive = no such curve, though single readings can be large or run the other way. Potencies of inconclusive entries are left out as doubtful fits.

Assay: Primary qHTS for delayed death inhibitors of the malarial parasite plastid, 48 hour incubation
Details: P. falciparum luciferase growth in erythrocytes; series mostly up to 28.7 µM; activity change, negative = inhibition: at the top concentration
Outline: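 Cell-based growth assay: transgenic P. falciparum expressing firefly luciferase, cultured in red cells within RPMI 1640 containing 0.5% w/v Albumax, 24 mM bicarbonate and gentamycin. A drop in luciferase activity indicates inhibition.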
% is set by controls: 0 for no effect and ±100 for the full control effect; potency is the fitted concentration of half-maximal effect; tags give direction and shape of the fitted curve.

SMILES | Potency | activity change, negative = inhibition
Brc1ccc(-[n+]2c(-c3ccccc3)cc(-c3ccccc3)cc2-c2ccccc2)cc1 | active: 1.85 µM | –
c1ccc2c(c1)CCCN2c1nc(N2CCOCC2)nc(N2CCOCC2)n1 | inconclusive [inhibitor, partial curve, poor fit] | –
CCCCCn1c(-c2ccco2)nc2nc3ccccc3nc21 | inconclusive [inhibitor, partial curve] | –
CN(CC(=O)NC1CCCCC1)S(=O)(=O)c1ccc2c(c1)c(=O)n(C)c(=O)n2C | – | inactive: -3.89%
C/C(=N\NC(=O)Cc1c[nH]c2ccccc12)c1ccc2ccccc2c1 | inconclusive [inhibitor, single point] | –
Cn1c(=O)n(Cc2ccc(Cl)cc2)c(=O)c2c1nc1n2CCN1Cc1ccco1 | inconclusive [inhibitor, full curve, poor fit] | –
Cc1cc(C)n(-c2cc(N3CCOCC3)nc(-c3ccccc3)n2)n1 | inconclusive [inhibitor, single point] | –
CCOc1ccc(N(CC(=O)NCC2CCCO2)C(=O)CCC(=O)Nc2ccccn2)cc1 (configuration not stated) | inconclusive [inhibitor, single point] | –
COC(=O)/C(=N/Nc1ccccc1C)Sc1nnc(C(O)c2ccccc2)n1-c1ccccc1 (configuration not stated) | – | inactive: -20.6%
OCCC1CN(CCCc2ccccc2)CCN1Cc1ccc(F)cc1 (configuration not stated) | inconclusive [inhibitor, full curve, poor fit] | –
[O-]c1ccccc1-[n+]1c(-c2ccccc2)cc(-c2ccccc2)cc1-c1ccccc1 | active: 1.31 µM | –
CCOc1ccc(-c2cnc(NCc3cccc4ccccc34)n2CCOC)cc1 | inconclusive [inhibitor, single point] | –
O=C(Nc1cccc(Cl)c1N1CCCC1)c1cccc(-c2cc3ccccc3oc2=O)c1 | inconclusive [inhibitor, partial curve] | –
CN(CC(=O)Nc1ccccc1C(F)(F)F)C(=O)CCc1nc2ccccc2c(=O)[nH]1 | – | inactive: 0.257%
CCCCC(=O)Nc1cnc(NC(=O)c2cccs2)cc1C | – | inactive: 94.7%
O=[N+]([O-])c1cccc(-c2cn3nc(-c4ccccc4)c(-c4ccccc4)nc3n2)c1 | active: 9.28 µM | –
CC(=O)/C=C/c1ccc(C)o1 | – | inactive: 8.21%
COc1ccc(-c2nc(CSCC(=O)N3CCc4ccccc4C3)c(C)o2)cc1OC | inconclusive [inhibitor, single point] | –
CCNC(=O)NCc1cccc(Cl)c1 | – | inactive: -1.47%
CCOC(=O)c1cc2c(ccc3nc(C)c(C)c32)[nH]c1C | inconclusive [inhibitor, partial curve, poor fit] | –
O=C(NCc1ccco1)c1cc2nc(-c3cccs3)cc(C(F)(F)F)n2n1 | inconclusive [inhibitor, partial curve, poor fit] | –

SMILES | Potency | activity change, negative = inhibition
CCOc1ccc(OCCOC(=O)CN(C)S(=O)(=O)c2ccc(NC(C)=O)cc2)cc1 | inconclusive [inhibitor, partial curve, poor fit] | –
CC(C)C(=O)N1CCC(c2nc(-c3ccc(S(=O)(=O)N4CCN(C)CC4)cc3)no2)CC1 | inconclusive [inhibitor, single point] | –
CC(=O)O[C@]1(C(C)=O)CC[C@H]2[C@@H]3C=C(C)C4=CC(=O)CC[C@]4(C)[C@H]3CC[C@@]21C | inconclusive [inhibitor, single point] | –
O=[N+]([O-])c1ccc(C(O)CNC(=S)Nc2ccccc2)cc1 (configuration not stated) | inconclusive [inhibitor, partial curve, poor fit] | –
CCN(CC(=O)Nc1c(F)cccc1F)C(=O)c1cc(C)oc1C | inconclusive [inhibitor, single point] | –
Cc1cc2cc(CNC(=O)c3ccc(Br)o3)ccc2[nH]1 | inconclusive [inhibitor, single point] | –
Cn1cc(/C=N/NC(=O)c2cc3cc(Br)ccc3o2)c2ccccc21 | inconclusive [inhibitor, partial curve, poor fit] | –
Cn1nc(C(=O)OCC(=O)N(Cc2ccccc2)C(C)(C)C)c2ccccc2c1=O | inconclusive [inhibitor, partial curve, poor fit] | –
CCOC(=O)c1cccc(NC(=O)CSc2nncn2-c2ccccn2)c1 | – | inactive: -0.0959%
CCOC(=O)N1CCC(NC(=O)C2CCCN(C(=O)N3CCOc4ccccc43)C2)CC1 (configuration not stated) | inconclusive [inhibitor, partial curve, poor fit] | –
Cc1cc(Cl)c2c(c1)[C@]1(C(=O)N2)[C@@H]2C(=O)N(Cc3ccccc3)C(=O)[C@@H]2[C@@H]2CCCN21 | inconclusive [inhibitor, partial curve, poor fit] | –
O=C(NCc1cccnc1)c1ccc(Cn2c(=S)[nH]c3ccc(Br)cc3c2=O)cc1 | inconclusive [inhibitor, single point] | –
CCOc1ccc2ccccc2c1/C=N/NC(=O)CC1(C)OCCCO1 | – | inactive: 48.9%
C=C(C)COc1ccc(-c2ncncc2Oc2ccc(OC)cc2)c(O)c1 | active: 3.7 µM | –
CCc1nc(SCc2cccnc2)c(C#N)cc1C | inconclusive [inhibitor, partial curve] | –
CC(NCC(O)COc1ccc(S(=O)(=O)N2CCOCC2)cc1)c1ccccc1 (configuration not stated) | inconclusive [inhibitor, single point] | –
CCN(C(=O)CSc1nc2c(cnn2-c2ccccc2)c(=O)[nH]1)C1CCS(=O)(=O)C1 (configuration not stated) | inconclusive [inhibitor, single point] | –
CCc1cc(Cn2nc(-c3ccccc3)cc2C(=O)NCc2cccs2)on1 | active: 14.7 µM | –
CC1(C)CC(=O)C=C(NNC(=O)c2cccnc2)C1 | inconclusive [inhibitor, full curve, poor fit] | –
Cc1cc(-c2nnc(SCC(=O)Nc3nc(-c4ccccc4)cs3)o2)no1 | – | inactive: -0.439%
CCOc1ccc(S(=O)(=O)NCCC(=O)NCC(C)(C)N2CCOCC2)cc1 | inconclusive [inhibitor, partial curve, poor fit] | –
